The other results are listed elsewhere or left out.
tested on: PfSIP2 AP2 domain 1 (GST-tagged); test: gcPBM binding intensity (ln(normalized median fluorescence intensity)); higher = stronger DNA binding
In short: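 Binding intensity is the highest Masliner-normalised natural-log median intensity over replicate spots in either probe orientation. To obtain it, GST-tagged P. falciparum DNA-binding domains made in E. coli were incubated for 1 h on an Agilent 4 × 180k array of primer-extended double-stranded 36-bp intergenic genomic probes plus negative controls. Detection used Alexa488 anti-GST antibody with scanning at 488 nm.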

Row | Sequence | gcPBM binding intensity (ln)
1 | TATATACATATATATATATGTATAGATAGATACATT [CACACA_negctrl_site1511] | 7.31
2 | TTTTGAAAAAATTTTTATAAAAGAATAAAATTATTA [XGTACX_negctrl_site570] | 6.86
3 | AATATTTTACAATACACATGCAAATAATATTCTAAA [TGCATGCA_site618] | 6.69
4 | TAAAAATGGAAACACACACACATAAATATATTTTAT [CACACA_site2513] | 6.97
5 | TCTCATTTTCCCTAAAAAAAAAAATAAATAAAAATA [TGCATGCA_negctrl_site580] | 6.89
6 | TTTTTCCATATTGTAGCATGCAGTATATATATCATG [TGCATGCA_site530] | 7
7 | ATATTATTTATGTATGCATGCGGCGAAATGGGCTTG [TGCATGCA_site28] | 7.19
8 | AATGGGTTACACATATGTACATAAAATATAAAAAAT [XGTACX_site3440] | 7.08
9 | ATATATATATATATATGTACTTAAAAAATATATACA [XGTACX_site8952] | 8.99
10 | AAAAAAAAAAAAAAAAAAAAAAAAAAAATACGAAAG [GTGCAC_negctrl_site729] | 8.9
11 | CTTTTTAATTAATACACACACACACGGATATAAATA [CACACA_site7145] | 7.27
12 | TATTTTTTTTGTGTGTGTCCTCATGTAATACTGCAA [XGTACX_site1380] | 7.5
13 | TATATTAAACTTTGCACACATAATTTAACTACAAAG [CACACA_site3441] | 7.39
14 | AATCATTTATTGATGGTGCAATATACCATCTAATGA [GTGCAC_site9440] | 9.44
15 | AAAAAAAAAAAACACACACACACACCCAAATATATA [CACACA_site150] | 7.14
16 | CATAATACATATAACACACACAATTATACATAAAAT [CACACA_site3233] | 7.13
17 | GGAATTGAAAAATCAGCACACACACTAATACATACA [CACACA_site9059] | 7.04
18 | AATAATTGTTAAAGGTGTACAATACCTACATAAGAA [XGTACX_site4215] | 7.53
19 | AAATGGCAATAATGGACACACAAATGTTGTTATATA [CACACA_site2819] | 6.85

Row | Sequence | gcPBM binding intensity (ln)
20 | AAAAAGGAAATTTACACACACATATAATATACATTA [CACACA_site3296] | 7.01
21 | ATTTACCAGACCATATGTACATACATAAAACACACA [XGTACX_site3788] | 7.46
22 | GTTCTACAAGCCACTGCATGCTGATATAGAATAAAT [TGCATGCA_site138] | 6.86
23 | TCATATATCCTTATCACACATATAATAAATTCCCTT [CACACA_site4457] | 6.86
24 | AATATTTCTCATTTTGTGCACTGAAAAATGTAATAT | 10.2
25 | TTCTTTGCTTTTCAAACACACAAAAGTTATTATAGT [CACACA_site6390] | 7.13
26 | TCACATTTTGGACACGTGCACATATATTTGATACAT | 8.43
27 | ATTTATATATAAATGTGTACATATATATATATAAAC [XGTACX_site7592] | 7.43
28 | ATTGTAAGTAAACACACACACATATATCTGTATTTA [CACACA_site4542] | 6.99
29 | CTGAAATTAACAAAAGTGCATAAAAATAAAAAATAT [GTGCAC_site9652] | 8.33
30 | TACCATGTTCAAATTACACACATATAATGCAATATA [CACACA_site7034] | 7.09
31 | CAATGCAAGGCTTAAAAAAATGGGCATATTATATAT [GTGCAC_negctrl_site304] | 6.94
32 | TTTTTTTACAACATTACACACAAATATTCTGGGTTA [CACACA_site3755] | 7.05
33 | AATATTATATTAAAATGTACAAAAATGAATTACTTT [XGTACX_site1473] | 6.8
34 | AAAAAAAAAAAAAAAACACACATACATACATACATA [CACACA_site6125] | 7.53
35 | TTTTTTTTTTTTTTTGCACACACCATATTTATAGAA [CACACA_site3310] | 7.75
36 | AGAAAAGTGATATATACACACTTATATTTATTTATA [CACACA_site7350] | 6.79
37 | TTTTATAAGGTGAAAAGTACATATAACTTATTTTAC [XGTACX_site5572] | 6.99
38 | TTAAATGATGTAAACACACACATATACATTATTATA [CACACA_site3162] | 6.9

Row | Sequence | gcPBM binding intensity (ln)
39 | TATTGTCTATAATAAACACACAATATTAAAAATATA [CACACA_site6624] | 6.76
40 | ATCTTTCCTATTTGTAGTACAAAAAAAAAAAAAAAA [XGTACX_site5485] | 7.4
41 | ACGTGTGATTATAATTGTACTTTAATGTAAGAATGA [XGTACX_site1109] | 7.21
42 | ATATATATATATATATGTACTTATAATAATATTCAA [XGTACX_site2593] | 8.88
43 | TTATTTTATTTTTTTGTGCACATATATATTTATAAA [GTGCAC_site9615] | 9.43
44 | AATTTTATTTAATTTTTTTGGGAAATGATAAAATTT [CACACA_negctrl_site934] | 6.79
45 | ACTTATATATTATGTTGTCCGTCCATTCTCTTTATC [XGTACX_site3769] | 7.21
46 | TTTTCATTCAATTATATTTATATATATATATATATA [GTGCAC_negctrl_site538] | 9.28
47 | TACATGTATAAATAAGCACACATGTGGATATGTACA [CACACA_site93] | 6.98
48 | CAAAATATTTTTATAACACACATATATATAATGTGC [CACACA_site4767] | 6.99
49 | TACACAAGGGGAAAAATATATATATATATATATATA [TGCATGCA_negctrl_site217] | 9.53
50 | TAAAAAATTTTATATTCACACACATATATATATATA [CACACA_site8109] | 9.41
51 | TAAAAGTATATATATACACACATAAATATATATGTA [CACACA_site663] | 6.99
52 | AAAATTTAAAGCATGACACACAATTATATTATGTGC [CACACA_site3435] | 6.68
53 | TTGTGAAATAAAATTTGTACACACATATATATATAT [XGTACX_site1078] | 9.53
54 | TTTTTTTTGGAATTCACACAAATATAACATGGGTAT [CACACA_site5185] | 7.15
55 | TTCTTTTCTTTAGTAGAATGTAAAAAATATAATCTT [XGTACX_negctrl_site290] | 7.01
56 | TATCTCTTCATATTGTGTACATATTTTTATTTATTG [XGTACX_site4038] | 7.36

Source: the supplement of paper PMC11417369
